This is an account of results in the RNAGym collection of RNA variant scans (doi:10.1073/pnas.2313332121).

This sample is rich in variants without activity. Where only a bound is given, the exact number is not on record here.

B1: TPR 5TU (parent)
chain: GGAUCUUCUCGAUCUAACAAAAAAGACAAAUCUGCCACAAAGCUUGAGAGCAUCUUCGGAUGCAGAGGCGGCAGCCUUCGGUGGCGCGAUAGCGCCAACGUUCUCAACUAUGACACGCAAAACGCGUGCUCCGUUGAAUGGAGUUUAUCAUG

In this series the parent is B1. The series is described as follows: polymerase ribozyme fitness, log enrichment relative to wild type (log ratio); higher = more active; in vitro selection for triplet polymerase activity. The method in brief: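 The heterodimeric triplet polymerase ribozyme's subunits were each mutagenized into PCR-built libraries and transcribed. Every library was selected once, in triplicate, by annealing with a biotinylated primer, the partner subunit and triplets, incubating frozen at −7 °C, gel-excising extended constructs, capturing on streptavidin beads and running RT-PCR. Input and output libraries were Illumina-sequenced, with genotypes kept only at ≥10 input reads and ≥1 read per output. Fitness, from inverse-variance-weighted replicate averages, is the base-2 logarithm of genotype enrichment over wild-type enrichment.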
With A17G, the “polymerase ribozyme fitness (log ratio)” value stood at 0.0905. For A17U the value was -0.256; for A17U C87A, at most -4.2.

In the case of A17U C87G, the “polymerase ribozyme fitness (log ratio)” value is -3.75.

Consider A17G A52C C54A G67A C85G C93G C118A G128A, for which the “polymerase ribozyme fitness (log ratio)” value was at most -4.2. Regarding A17C C32A G58C C96G A142U, the “polymerase ribozyme fitness (log ratio)” value is at most -4.2.

On to A17C C75U G84U C149G, for which the “polymerase ribozyme fitness (log ratio)” value was at most -4.2. As for A17C C32G C54A C76G G80A C93A C96A U111A, the “polymerase ribozyme fitness (log ratio)” value is at most -4.2. On to A17C C32G C43G U53G A66G U101A A137C, for which the “polymerase ribozyme fitness (log ratio)” value was at most -4.2. Take A17G A30G C36A C99A: the “polymerase ribozyme fitness (log ratio)” value is at most -4.2.

Take A17G C27U A49U G71U G83U C85G G140A U148A: the “polymerase ribozyme fitness (log ratio)” value was at most -4.2. For A17G A20C A52G A89G U148C the value was at most -4.2; for A17U A30C C54U C72A C93G, at most -4.2. For A17C C27U C38A C85U, the “polymerase ribozyme fitness (log ratio)” value was -0.305. A17U U53C G92A C129G: the “polymerase ribozyme fitness (log ratio)” value is at most -4.2. Consider A17G A19U C93U U102C G136A U148A, for which the “polymerase ribozyme fitness (log ratio)” value is at most -4.2. On to A17G A23U A26G G86A G88U, for which the “polymerase ribozyme fitness (log ratio)” value was at most -4.2. Take A17U U148G: the “polymerase ribozyme fitness (log ratio)” value was at most -4.2. For A17C A49C G59U G86U G141U, the “polymerase ribozyme fitness (log ratio)” value is at most -4.2. As for A17G A52G U53G G59A A97U, the “polymerase ribozyme fitness (log ratio)” value is at most -4.2. As for A17G A37U U82C C96A, the “polymerase ribozyme fitness (log ratio)” value is -2.2. In the case of A17G U145C, the “polymerase ribozyme fitness (log ratio)” value came out at 0.174.

With A17C A52C C79A G81A G84U A110G G112C, the “polymerase ribozyme fitness (log ratio)” value is at most -4.2. For the variant A17G A49C G59U G92A A113G A119U, the “polymerase ribozyme fitness (log ratio)” value is -4.03. For A17U A49C G80C C87G C103U G143C U144A the value was at most -4.2; for A17U A19U C63U G68C C95U C96A G140A, at most -4.2. In the case of A17U A22U U44A G83C C131U, the “polymerase ribozyme fitness (log ratio)” value was at most -4.2. For the variant A17U C32G C57A U139A, the “polymerase ribozyme fitness (log ratio)” value is at most -4.2. Regarding A17C C57U U82C, the “polymerase ribozyme fitness (log ratio)” value is -0.0541. As to A17G G46A C69A A121G, the “polymerase ribozyme fitness (log ratio)” value was -3.45.

With A17U U56A G68A U145G, the “polymerase ribozyme fitness (log ratio)” value was at most -4.2. In the case of C18A A20G A22C A49G G68A C85U G141A, the “polymerase ribozyme fitness (log ratio)” value was at most -4.2. For A17U A19G A26C A47C A66U G86U U111A the value was at most -4.2. With A17C C27U G71A C93G A113C U134G U151G, the “polymerase ribozyme fitness (log ratio)” value is at most -4.2. A17G G58U C99A C114U A115G: the “polymerase ribozyme fitness (log ratio)” value was at most -4.2. A17U A29U A41C C93G G140U: the “polymerase ribozyme fitness (log ratio)” value is at most -4.2. The value for A17G A20C A29G A47U C72A A97C A121G A137C G140U was at most -4.2; that for A17C C27U U33A A47C was at most -4.2.

With A17U A29U G94C A120U U134G, the “polymerase ribozyme fitness (log ratio)” value is at most -4.2.

For the variant A17G A29U G42A C87U G100U A110C A115C A120G U134A, the “polymerase ribozyme fitness (log ratio)” value is at most -4.2.

On to A17U A20U A37U C51U C85U, for which the “polymerase ribozyme fitness (log ratio)” value was at most -4.2. In the case of A17G A41U G58C G59A U77A G84U A97U U102A C149G, the “polymerase ribozyme fitness (log ratio)” value is at most -4.2.

For A17G U53A G70U A107G A120C, the “polymerase ribozyme fitness (log ratio)” value is at most -4.2. Take A17G C79A G80C U109C: the “polymerase ribozyme fitness (log ratio)” value is at most -4.2. With A17G G59U A97C C99G, the “polymerase ribozyme fitness (log ratio)” value was -2.61.

As to A17C A73G U78G C85A A97G C99G A113U C118A G124A G143A, the “polymerase ribozyme fitness (log ratio)” value was at most -4.2.

Consider A17C C36U A39U U77G G80C C96G C149A, for which the “polymerase ribozyme fitness (log ratio)” value was at most -4.2. On to A17U A39C U90G C96U G100U C105G, for which the “polymerase ribozyme fitness (log ratio)” value was at most -4.2. Consider A17G A37G A49C U77G U148G, for which the “polymerase ribozyme fitness (log ratio)” value was at most -4.2.

Regarding A17G A20C A30G G46A G59U G67C G68U G70U C96G, the “polymerase ribozyme fitness (log ratio)” value is at most -4.2. Regarding A17U C27G G58C C96A C116U, the “polymerase ribozyme fitness (log ratio)” value is at most -4.2. Consider A17G C32A A49C G83U A107G G143U, for which the “polymerase ribozyme fitness (log ratio)” value is at most -4.2. As for A17G C27A A89C A115U, the “polymerase ribozyme fitness (log ratio)” value was at most -4.2. For the variant A17U C35A C76A U82G C96A C125A U145A, the “polymerase ribozyme fitness (log ratio)” value was at most -4.2. Turning to A17G C32U C36A C96U A115C, the “polymerase ribozyme fitness (log ratio)” value is at most -4.2.

For the variant A17U A29U C93A G141U, the “polymerase ribozyme fitness (log ratio)” value was at most -4.2. In the case of A17U U144A U151A, the “polymerase ribozyme fitness (log ratio)” value is at most -4.2. Regarding A17U A73U C93U A120G, the “polymerase ribozyme fitness (log ratio)” value was -1.86. As for A17U C18A G46C A47G G86C A89U A150G, the “polymerase ribozyme fitness (log ratio)” value was at most -4.2. For A17C U44A C57U C76G C79U C85A A91G C123A the value was at most -4.2; for C18A A20U C27G A30U U56G A64U G84U U102C G112U G124C, at most -4.2; for A17G C85G, -1.33. A17G U134G: the “polymerase ribozyme fitness (log ratio)” value is -1.76. As for A17U C18G G42U U45G C105G C116A, the “polymerase ribozyme fitness (log ratio)” value is at most -4.2. The value for C18A A20G G46C U56C G94C C105G A122U was -0.89; that for A17U A30C G42C G65C U77G was at most -4.2; that for A17C G42A G59A G86U G88U A107U C132U U146C was at most -4.2. The value for A17U A29U A120C G128U was at most -4.2.

In the case of A17G U151G, the “polymerase ribozyme fitness (log ratio)” value is at most -4.2. With A17U C18G G50C C51U C57A G59U A66C G152U, the “polymerase ribozyme fitness (log ratio)” value was at most -4.2.

Take A17G G42A U45A A47C C85U U102G G141A U146C C149A: the “polymerase ribozyme fitness (log ratio)” value is at most -4.2. For A17U A20C A26C C93U C131U the value was -2.3; for A17C G68C U90C C99G C125G U134A G141A, at most -4.2. For A17G G86A, the “polymerase ribozyme fitness (log ratio)” value is -0.889. Take A17U A28U: the “polymerase ribozyme fitness (log ratio)” value is at most -4.2. On to A17G C35G U55A U61A U90G G100C U139A, for which the “polymerase ribozyme fitness (log ratio)” value was at most -4.2.

Regarding A17U A23G G42A A47C G81U G92U C99U C103A A110G U145A, the “polymerase ribozyme fitness (log ratio)” value was at most -4.2. Regarding A17U A47U G71A C75G C93A, the “polymerase ribozyme fitness (log ratio)” value was at most -4.2. A17U G124U: the “polymerase ribozyme fitness (log ratio)” value is -0.693. For A17G C43A C75A the value was at most -4.2; for A17U G46U G74C C85A C118U C125G, at most -4.2; for A17G G84A, -0.469.

On to A17U A47C G68U G88C, for which the “polymerase ribozyme fitness (log ratio)” value is at most -4.2.
